{
  "source": "paper PMC4336329",
  "about": "(PLoS ONE, 2015)",
  "note": "In all, about 310,000 compounds went through this assay and about 2,200 (0.71%) showed an effect of 50% or more. Effects have a minus sign here. Some of the results follow.",
  "data": [
    {"molecular_target": "human ether-à-go-go-related gene (hERG) potassium channel (human, UniProt Q12809)", "sequence (Q12809 whole entry, looked up)": "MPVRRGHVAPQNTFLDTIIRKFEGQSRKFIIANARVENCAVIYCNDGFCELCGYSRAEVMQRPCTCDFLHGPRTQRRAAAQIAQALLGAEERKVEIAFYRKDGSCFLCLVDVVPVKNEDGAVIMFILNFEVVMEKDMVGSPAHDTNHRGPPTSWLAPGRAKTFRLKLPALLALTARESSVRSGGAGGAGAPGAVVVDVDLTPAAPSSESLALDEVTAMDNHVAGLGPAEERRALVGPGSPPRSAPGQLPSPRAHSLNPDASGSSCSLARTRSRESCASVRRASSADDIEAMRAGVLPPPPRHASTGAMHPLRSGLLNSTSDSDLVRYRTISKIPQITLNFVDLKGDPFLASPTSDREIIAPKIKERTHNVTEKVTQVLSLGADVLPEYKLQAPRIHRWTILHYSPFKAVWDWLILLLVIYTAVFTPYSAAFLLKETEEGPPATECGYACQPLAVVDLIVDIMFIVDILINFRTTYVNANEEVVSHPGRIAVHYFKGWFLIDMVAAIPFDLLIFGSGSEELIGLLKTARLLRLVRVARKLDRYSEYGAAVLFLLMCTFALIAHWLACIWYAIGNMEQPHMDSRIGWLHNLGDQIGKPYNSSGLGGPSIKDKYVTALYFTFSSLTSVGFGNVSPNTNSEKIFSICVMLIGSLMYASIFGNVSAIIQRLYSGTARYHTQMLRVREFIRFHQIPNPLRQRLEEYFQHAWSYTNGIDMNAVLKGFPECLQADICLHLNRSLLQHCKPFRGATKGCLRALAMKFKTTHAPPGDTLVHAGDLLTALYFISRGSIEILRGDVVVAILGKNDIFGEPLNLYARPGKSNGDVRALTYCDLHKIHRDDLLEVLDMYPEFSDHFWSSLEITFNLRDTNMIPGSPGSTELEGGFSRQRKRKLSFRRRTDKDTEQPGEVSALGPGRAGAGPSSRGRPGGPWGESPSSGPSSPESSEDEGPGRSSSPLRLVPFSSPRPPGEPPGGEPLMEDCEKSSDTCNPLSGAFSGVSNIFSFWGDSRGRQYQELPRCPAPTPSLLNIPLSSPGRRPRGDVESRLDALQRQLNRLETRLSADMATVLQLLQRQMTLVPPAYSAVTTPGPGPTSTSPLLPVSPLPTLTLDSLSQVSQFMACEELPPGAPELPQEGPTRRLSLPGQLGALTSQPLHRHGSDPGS", "test": "primary screen, population patch clamp on CHO cells stably expressing hERG", "units": {"hERG current change (%, negative = inhibition) at 1uM": "%"}, "values": [
      {"compound": "COC(=O)NNC(=O)COc1cc(C)ccc1C", "hERG current change (%, negative = inhibition) at 1uM": 11.5},
      {"compound": "N#C/C(=C\\c1ccc[nH]1)C(=O)Nc1ccccc1[N+](=O)[O-]", "hERG current change (%, negative = inhibition) at 1uM": 11.9},
      {"compound": "O=S(=O)(c1cccc(C(F)(F)F)c1)N1CCN(c2nnnn2-c2ccccc2)CC1", "hERG current change (%, negative = inhibition) at 1uM": 11.9},
      {"compound": "CC1CCCC(C)N1CCCNC(=O)Cn1cc2c(n1)CCCC2", "note": "(centres unmarked)", "hERG current change (%, negative = inhibition) at 1uM": 3.89},
      {"compound": "CCC(=O)Nc1ccc(-c2ccc(N3CCN(C)CC3)nn2)cc1", "hERG current change (%, negative = inhibition) at 1uM": 5.37},
      {"compound": "Cc1c(Br)cc(C(=O)N2CCCC2)c(C)c1C", "hERG current change (%, negative = inhibition) at 1uM": 10.2},
      {"compound": "CCOCCCN(C)C1CCN(C(=O)c2oc3ccccc3c2NC(=O)COc2cccc(C)c2)CC1", "hERG current change (%, negative = inhibition) at 1uM": -62.4},
      {"compound": "CCOC(=O)N1CCN(c2cc(C)nc3nc(C)nn23)CC1", "hERG current change (%, negative = inhibition) at 1uM": -22},
      {"compound": "O=C(NCc1cccnc1)C1CCN(S(=O)(=O)c2cccc(C(F)(F)F)c2)CC1", "hERG current change (%, negative = inhibition) at 1uM": 12.4},
      {"compound": "Cc1ccc(S(=O)(=O)N2CCN(C(=O)CCC(=O)NCc3cccc(C(F)(F)F)c3)CC2)cc1", "hERG current change (%, negative = inhibition) at 1uM": -10.1},
      {"compound": "CCOC(=O)c1ccc2nc(CCC(=O)N[C@H](C(=O)OC)C(C)C)c(=O)n(CC)c2c1", "hERG current change (%, negative = inhibition) at 1uM": 10.4},
      {"compound": "COc1ccc(C2NCCc3sccc32)cc1", "note": "(centres unmarked)", "hERG current change (%, negative = inhibition) at 1uM": 4.92},
      {"compound": "O=C(CN1C(=O)NC2(CCCc3ccccc32)C1=O)N1CCN(C(=O)c2ccco2)CC1", "note": "(centres unmarked)", "hERG current change (%, negative = inhibition) at 1uM": 1.49},
      {"compound": "CCCCNC(=O)c1nn2c(C(F)(F)F)cc(-c3ccc(OC)cc3)nc2c1Br", "hERG current change (%, negative = inhibition) at 1uM": 6.48},
      {"compound": "COc1ccc(OC)c(S(=O)(=O)N(C)CC(=O)Nc2ccccc2OC)c1", "hERG current change (%, negative = inhibition) at 1uM": 4.37},
      {"compound": "CC1Sc2ccc(S(=O)(=O)N3CCC(C(=O)Nc4ccc(Cl)cc4)CC3)cc2NC1=O", "note": "(centres unmarked)", "hERG current change (%, negative = inhibition) at 1uM": 14.5},
      {"compound": "O=[N+]([O-])c1ccc(Cc2ccncc2)cc1", "hERG current change (%, negative = inhibition) at 1uM": -2.68},
      {"compound": "COc1cc(Br)c(-c2sc(Nc3ccccc3)n[n+]2-c2ccccc2)cc1OC.[Cl-]", "hERG current change (%, negative = inhibition) at 1uM": -5.97},
      {"compound": "Cc1[nH]nc(N=CC2=C(O)CC(C)(C)CC2=O)c1-c1ccc(Cl)cc1", "hERG current change (%, negative = inhibition) at 1uM": -5.63},
      {"compound": "NC(=S)NNC(=S)Nc1ccccc1", "hERG current change (%, negative = inhibition) at 1uM": 11.2},
      {"compound": "CCOC(=O)c1oc2ccc(S(=O)(=O)n3nc(-c4ccc(OC)cc4)cc3N)cc2c1C", "hERG current change (%, negative = inhibition) at 1uM": 18.1},
      {"compound": "COc1cc(OC)cc(C(=O)N[C@H](C(=O)Nc2ccc(NC(C)=O)cc2)C(C)C)c1", "hERG current change (%, negative = inhibition) at 1uM": 11.6},
      {"compound": "Cc1csc(SCC(=O)c2cc(C)n(Cc3cccs3)c2C)n1", "hERG current change (%, negative = inhibition) at 1uM": 11.5},
      {"compound": "O=C(CNC(=O)c1ccccn1)N=Nc1c(O)[nH]c2ccccc12", "hERG current change (%, negative = inhibition) at 1uM": 15.5},
      {"compound": "CN(C1=NC(=O)C(CC(=O)O)S1)c1ccc(O)cc1", "note": "(centres unmarked)", "hERG current change (%, negative = inhibition) at 1uM": 9.82},
      {"compound": "O=C(O)CC(CNS(=O)(=O)c1cccc2nsnc12)c1ccccc1", "note": "(centres unmarked)", "hERG current change (%, negative = inhibition) at 1uM": 7.21},
      {"compound": "CN(C)C(=O)c1c(C(F)(F)F)nn(C)c1Cl", "hERG current change (%, negative = inhibition) at 1uM": 13.7},
      {"compound": "Cc1ccccc1C(=O)Oc1ccc2ccc(O)cc2c1", "hERG current change (%, negative = inhibition) at 1uM": 14.7},
      {"compound": "O=C(O)c1ccc2c(=O)n(-c3ccc(F)c(Cl)c3)c(=S)[nH]c2c1", "hERG current change (%, negative = inhibition) at 1uM": 11.1},
      {"compound": "Cc1ccc2oc(C(=O)N3CCC(C(N)=O)(N4CCCCC4)CC3)c(C)c2c1", "hERG current change (%, negative = inhibition) at 1uM": 2.03},
      {"compound": "O=C(Cn1c(=O)oc2ccccc21)Nc1ccccc1C(F)(F)F", "hERG current change (%, negative = inhibition) at 1uM": 18.4},
      {"compound": "O=C1Nc2ccc([N+](=O)[O-])cc2OC1CCN1CCOCC1", "note": "(centres unmarked)", "hERG current change (%, negative = inhibition) at 1uM": 6.64},
      {"compound": "CN(C)c1ccc(NC(=O)CN2CCC(NC(=O)C3CCCCC3)CC2)cc1", "hERG current change (%, negative = inhibition) at 1uM": 10.9},
      {"compound": "COc1ccccc1/C=C(\\NC(=O)c1ccc(OC)c(OC)c1)C(=O)Nc1cc([N+](=O)[O-])ccc1C", "hERG current change (%, negative = inhibition) at 1uM": 13.9},
      {"compound": "COc1ccc(C(=S)N2CCCC2)cc1Br", "hERG current change (%, negative = inhibition) at 1uM": 9.24},
      {"compound": "O=C(c1ccco1)N1CCN(C(=O)c2cnn(-c3ccc(Cl)cc3)c2C2CCNCC2)CC1", "hERG current change (%, negative = inhibition) at 1uM": 13.7},
      {"compound": "COCCn1c(SCC(=O)NNC(=O)c2cc(Cl)ccc2OC)nnc1-c1ccncc1", "hERG current change (%, negative = inhibition) at 1uM": 9.64},
      {"compound": "CCCn1c(N)c(N(CCOC)C(=O)CSc2ccccc2)c(=O)[nH]c1=O", "hERG current change (%, negative = inhibition) at 1uM": 10.2},
      {"compound": "CCCCc1cc(=O)oc2c(CN3CCCC3)c(O)c(Cl)cc12", "hERG current change (%, negative = inhibition) at 1uM": 0.161},
      {"compound": "Cc1occc1C(=O)Nc1nn[nH]n1", "hERG current change (%, negative = inhibition) at 1uM": 11.3},
      {"compound": "CCCOc1ccc(C(=O)Nc2ccc(C)cc2[N+](=O)[O-])cc1", "hERG current change (%, negative = inhibition) at 1uM": 2.96},
      {"compound": "CN(c1ccc(C(=O)NCCSCc2ccccc2)cc1)S(=O)(=O)c1ccccc1", "hERG current change (%, negative = inhibition) at 1uM": 9.97},
      {"compound": "CC1=C(C(=O)OC2CCCCC2)C(c2ccc(O)cc2)NC(=O)N1", "note": "(centres unmarked)", "hERG current change (%, negative = inhibition) at 1uM": 13},
      {"compound": "COc1cccc(CNC(=O)CCNC(=O)N2CCn3c2nc2ccccc23)c1", "hERG current change (%, negative = inhibition) at 1uM": 22.3},
      {"compound": "CC(C)Nc1ccc(C(CC(N)=O)NC(=O)Cc2ccc(Cl)cc2)cc1[N+](=O)[O-]", "note": "(centres unmarked)", "hERG current change (%, negative = inhibition) at 1uM": 10.9},
      {"compound": "C=CCOc1ccc(/C=C/C(=O)OCC(=O)NCCC2=CCCCC2)cc1", "hERG current change (%, negative = inhibition) at 1uM": 13.3},
      {"compound": "CCc1ccc(-n2c(SCc3c(C)noc3C)nnc2-c2ccncc2)cc1", "hERG current change (%, negative = inhibition) at 1uM": -2.1},
      {"compound": "O=C(O)c1cc(-c2ccc(Cl)s2)[nH]n1", "hERG current change (%, negative = inhibition) at 1uM": 6.26},
      {"compound": "Cc1nn(C)cc1CNC(=O)c1ccccc1Br", "hERG current change (%, negative = inhibition) at 1uM": -0.58},
      {"compound": "Cc1ccc(C)c(S(=O)(=O)N2CCCOC2CNC(=O)C(=O)NCc2cccnc2)c1", "note": "(centres unmarked)", "hERG current change (%, negative = inhibition) at 1uM": 7.36},
      {"compound": "N#Cc1ccccc1Sc1ccccc1C(=O)Nc1ccccc1", "hERG current change (%, negative = inhibition) at 1uM": 8.9},
      {"compound": "Cc1ccccc1-n1c(N)c(C(=O)Nc2ccc(F)cc2)sc1=S", "hERG current change (%, negative = inhibition) at 1uM": 6.6},
      {"compound": "Cl.O=C(CCN1CCOCC1)c1ccccc1", "hERG current change (%, negative = inhibition) at 1uM": 6.33},
      {"compound": "CCOc1ccccc1C(=O)Nc1cnn(Cc2ccc(F)cc2)c1", "hERG current change (%, negative = inhibition) at 1uM": 9.48},
      {"compound": "O=C(CCc1nnc2ccc(NCc3ccccc3)nn12)NCC1CCN(C2CCCC2)C1", "note": "(centres unmarked)", "hERG current change (%, negative = inhibition) at 1uM": 10.6},
      {"compound": "COc1cc(OC)c(C2=NOC(C(=O)NCc3cccs3)C2)cc1Cl", "note": "(centres unmarked)", "hERG current change (%, negative = inhibition) at 1uM": -0.0437}
    ]}
  ]
}
